# Data published in publication PMC4336329 (PLoS ONE, 2015).
# The campaign covered roughly 310,000 compounds. About 2,200 (0.71%) showed an effect of 50% or more. The effect is printed as a negative number. The list shows a part of the results.
# Molecular target: human ether-à-go-go-related gene (hERG) potassium channel (human, UniProt Q12809)
# Test: primary screen, population patch clamp on CHO cells stably expressing hERG
# Chain of human ether-à-go-go-related gene (hERG) potassium channel (Q12809 whole entry, looked up): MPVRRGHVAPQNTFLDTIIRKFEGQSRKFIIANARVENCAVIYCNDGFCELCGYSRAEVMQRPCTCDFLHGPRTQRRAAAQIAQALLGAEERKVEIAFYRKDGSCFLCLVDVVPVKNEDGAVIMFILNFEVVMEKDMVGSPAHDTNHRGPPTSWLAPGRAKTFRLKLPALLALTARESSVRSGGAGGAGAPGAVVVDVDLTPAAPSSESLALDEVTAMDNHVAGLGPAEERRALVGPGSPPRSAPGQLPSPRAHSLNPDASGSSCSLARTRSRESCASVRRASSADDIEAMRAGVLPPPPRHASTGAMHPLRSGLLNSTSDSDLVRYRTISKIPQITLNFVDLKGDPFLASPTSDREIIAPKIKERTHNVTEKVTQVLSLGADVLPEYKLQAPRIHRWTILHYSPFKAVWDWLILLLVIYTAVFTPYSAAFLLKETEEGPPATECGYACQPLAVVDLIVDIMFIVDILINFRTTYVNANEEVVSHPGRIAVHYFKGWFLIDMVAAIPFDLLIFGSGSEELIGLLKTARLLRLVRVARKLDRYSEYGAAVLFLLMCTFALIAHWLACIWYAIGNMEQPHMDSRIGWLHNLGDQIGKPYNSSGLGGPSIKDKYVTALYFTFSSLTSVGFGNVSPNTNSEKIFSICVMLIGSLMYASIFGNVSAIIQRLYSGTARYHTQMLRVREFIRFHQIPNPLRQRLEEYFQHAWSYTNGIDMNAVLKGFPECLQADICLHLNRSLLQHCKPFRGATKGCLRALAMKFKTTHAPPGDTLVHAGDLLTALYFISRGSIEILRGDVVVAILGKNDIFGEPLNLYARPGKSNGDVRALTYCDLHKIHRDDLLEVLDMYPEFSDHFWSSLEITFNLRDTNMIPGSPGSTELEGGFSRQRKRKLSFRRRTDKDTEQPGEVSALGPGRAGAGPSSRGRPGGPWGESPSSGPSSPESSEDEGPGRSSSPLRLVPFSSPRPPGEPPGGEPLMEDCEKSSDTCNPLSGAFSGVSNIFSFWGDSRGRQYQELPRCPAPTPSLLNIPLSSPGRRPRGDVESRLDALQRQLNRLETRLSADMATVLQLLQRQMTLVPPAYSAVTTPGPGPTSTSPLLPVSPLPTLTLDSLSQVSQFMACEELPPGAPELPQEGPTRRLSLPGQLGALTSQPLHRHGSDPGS
row,Structure (SMILES),"hERG current change (%, negative = inhibition) at 1uM [%]"
1,CCOc1ccc(NC(=O)C2C(c3ccccc3)C2(Cl)Cl)cc1 (stereo not drawn),14.8
2,NS(=O)(=O)c1ccc(NC(=O)COC(=O)c2ccc(Cl)nc2)cc1,8
3,COc1ccc2[nH]c(=O)c(CN(CCO)S(=O)(=O)c3c(C)ccc4nsnc34)cc2c1,5.08
4,CCC(C)c1ccc(NC(=O)COC(=O)CCNC(=O)c2ccco2)cc1 (stereo not drawn),4.32
5,CC(=O)Nc1ccc(NC(=O)CCN2C(=O)c3ccccc3C2=O)cc1,17
6,COc1ccc(CCNC(=O)Cn2c([N+](=O)[O-])cnc2C)cc1OC,8.24
7,Cc1nnc(NC(=O)c2cccc(F)c2)s1,5.85
8,CCOC(=O)c1cccc(NC(=O)CCc2ccccc2)c1,2.84
9,Cc1ccc(NC(=O)CCN2C(=O)c3ccccc3C2=O)cc1,13.2
10,CCn1cc(CN2CCC(n3nccc3NC(=O)c3ccccc3OC)CC2)cn1,-53.5
11,Cc1ccc(C(=O)NC(=S)NCCCN2CCOCC2)cc1,3.73
12,O=C(COC(=O)c1cc(=O)[nH]c2ccccc12)Nc1ccc(Cl)cn1,12.1
13,O=C(O)C/C(=C\c1ccc(Cl)cc1)c1nc2ccccc2o1,12
14,N#CCNC(=O)c1nn2c(C(F)(F)F)cc(-c3ccccc3)nc2c1Br,17.7
15,O=C(Nc1ccccc1C(=O)N1CCCC1)C1CCN(c2ncccn2)CC1,-1.05
16,Cc1nc2c(=O)n(C)c(=O)[nH]c2n1Cc1ccccc1,5.17
17,Cn1c(NC(=O)Cc2cccc3ccccc23)cc(=O)n(C)c1=O,9.64
18,S=c1nc(Cc2ccccc2)[nH]c2ccccc12,16.9
19,CCS(=O)(=O)c1ccc(O)c(N2C(=O)C3C4C=CC(C4)C3C2=O)c1 (stereo not drawn),13.3
20,CC(C)(C)c1cc[n+](-c2[nH]c(=O)sc2/C=N/NC([S-])=Nc2ccccc2)cc1,-13.4
21,CCOC(=O)N1CCN(C(=O)CNS(=O)(=O)c2cccs2)CC1,-8.19
22,CC1(c2ccc(OC(F)F)cc2)NC(=O)N(CC(=O)Nc2cccnc2Cl)C1=O (stereo not drawn),-5.83

row,Structure (SMILES),"hERG current change (%, negative = inhibition) at 1uM [%]"
1,Cc1c(NC(=O)C(C)OC(=O)/C=C/c2ccc3c(c2)OCO3)c(=O)n(-c2ccccc2)n1C (stereo not drawn),4.18
2,Cc1sc2nc(COC(=O)CNC(=O)c3ccc(C(C)(C)C)cc3)[nH]c(=O)c2c1C,7.78
3,COc1ccc(NC(=O)c2c(C(F)(F)F)nn(C)c2Cl)cc1,-1.06
4,COc1ccc(S(=O)(=O)NC(CC(=O)NCc2ccccc2OC)c2ccco2)cc1 (stereo not drawn),-21
5,CCOC(=O)/C(=N\Nc1cccc(C(F)(F)F)c1)N(CCOC)CCOC,-10.3
6,Cc1ccc(Cn2ccc(NC(=O)c3noc4c3CCc3ccccc3-4)n2)cc1,14.6
7,O=C(CSc1nc2ccccc2c(=O)n1CCC(=O)N1CCCCC1)NCc1ccccc1,-43.1
8,Nc1c(C(=O)N/N=C/c2ccc([N+](=O)[O-])cc2)sc2nnc(-c3ccccc3)c(-c3ccccc3)c12,12.8
9,Cc1cc(C(=O)NNS(=O)(=O)c2ccc(F)cc2)nn1C(C)(C)C,8.83
10,CCSc1nc2c(cnn2-c2ccc(C)c(C)c2)c(=O)[nH]1,16.1
11,O=C(Nc1ccccc1)C1=C[C@H](C2CCCCC2)C[C@H](OCc2ccc(CO)cc2)O1,13.7
12,Cc1ccc(OCCCC(=O)N(C)CC(=O)Nc2ccccc2Cl)cc1,8.06
13,O=C(NC1CC1)C1=C[C@@H](c2ccc3c(c2)OCO3)C[C@@H](OCCCCO)O1,8.09
14,O=C(CCCn1cncn1)N1CCCC(N2CCN(c3ccccc3F)CC2)C1 (stereo not drawn),15.8
15,O=C(c1cc(=O)c2ccccc2o1)N1CCCc2ccccc21,4.51
16,CCOC(=O)C(NC(=O)c1ccccc1)=C1CCCCC1,16.2
17,Cc1nc(NCCc2ccc(S(N)(=O)=O)cc2)c2c(C)c(C)sc2n1,10.2
18,C#C[C@]1(O)CC[C@H]2[C@@H]3[C@H](C)CC4=C(CCC(=O)C4)[C@H]3CC[C@@]21C,5.64
19,Cn1cc(S(=O)(=O)N2CCC(C(N)=O)CC2)c(=O)n(C)c1=O,11
20,O=C(CNC(=O)c1cccc(OC(F)F)c1)OCc1cc(=O)n2cc(Br)ccc2n1,-5.96
21,CN1C=C(C(F)(F)F)C=C/C1=C(\C#N)c1nnc2n1CCCCC2,9.49
22,N#C/C(=C/c1ccccc1[N+](=O)[O-])c1nnc2n1CCCCC2,10.2

row,Structure (SMILES),"hERG current change (%, negative = inhibition) at 1uM [%]"
1,COc1cc(NC(=O)Cc2ccccc2)ccc1NC(=O)Cc1ccccc1,18
2,O=C(COC(=O)Cc1ccc(Cl)cc1)NCc1ccc(F)cc1,0.242
3,COc1cc(/C=C(\C#N)c2nc3c(s2)CC(C)CC3)ccc1O (stereo not drawn),14.2
4,CC(=O)Nc1cc(-c2ccc(Cl)cc2)[nH]n1,8.05
5,COc1ccc(C2CC(c3ccccc3)=NN2C(=O)c2ccc(Cl)c([N+](=O)[O-])c2)cc1 (stereo not drawn),9.38
6,Cc1cccc(CSc2[nH]c(=O)ncc2C)c1,9.08
7,CN1C(=O)N(C)C(=O)C2(Cc3cc([N+](=O)[O-])ccc3N3CCN(C(=O)c4ccccc4)CC32)C1=O (stereo not drawn),-30.8
8,CN(C)CCn1cnc2ccccc21.Cl,8.56
9,COc1ccccc1C=NC(CO)C(O)c1ccc([N+](=O)[O-])cc1 (stereo not drawn),3.78
10,COC(=O)Nc1nnc(Cc2ccc(Cl)cc2)s1,-1.19
11,COC(=O)CC(NC(=O)CN1CCN(c2ccc(F)cc2)CC1)c1cccc(F)c1 (stereo not drawn),-3.38
12,CCOC(=O)c1nn(-c2ccccc2C)c(=O)cc1OCC(=O)Nc1cccc(OC)c1,13
13,Cc1ccc(NC(=O)CCCCCN2C(=O)[C@@H]3Cc4ccccc4CN3C2=O)c(C)c1,12.5
14,COc1ccc(CCC(=O)Nc2cnc3ccccc3c2)cc1,-1.69
15,O=C(NCCCn1ccnc1)/C(=C/c1ccc(Cl)cc1)NC(=O)c1ccccc1,-82.5
16,Cc1ccc(S(=O)(=O)N2CCN(c3ccccc3)CC2)cc1C(=O)NC1CCCCC1,10.8
17,O=C(NCC1CCCO1)c1ccc(C(=O)NCC2CCCO2)cc1 (stereo not drawn),4.4
18,CN(CC(=O)N1CCN(c2ccc(F)cc2)CC1)S(=O)(=O)c1ccc(F)cc1,-34.9
19,CCC(C)Nc1nc2c(c(=O)[nH]c(=O)n2C)n1CCOc1ccccc1 (stereo not drawn),5.15
20,Cl.Fc1cccc(Nc2ncnc3sc4c(c23)CCC4)c1,12
21,COc1cc(C2c3c([nH]c(=O)[nH]c3=O)Nc3ccc4ccccc4c32)cc(OC)c1OC (stereo not drawn),13.1
22,O=C(CN1CC(=O)Oc2ccccc21)OCC(=O)c1ccc(Br)cc1,7.1

row,Structure (SMILES),"hERG current change (%, negative = inhibition) at 1uM [%]"
1,O=C(NCCCn1ccnc1)/C(=C/c1ccc(F)cc1)NC(=O)c1ccccc1,-72.2
2,CCOC(=O)c1nn2c(C(F)(F)F)cc(-c3ccc(OC)cc3)nc2c1Br,17.6
3,O=C(CCn1c(=O)[nH]c2ccsc2c1=O)NCCc1ccc(Cl)cc1,10.4
4,O=C(Nc1cccc(NC(=O)c2ccco2)c1)c1ccc2c(c1)OCO2,-16.4
5,C#CCOC(=O)c1ccc(-n2cncn2)nc1,12.4
6,Cc1ccc2[nH]c(C)c(CCNC(=O)c3c(N)no[n+]3[O-])c2c1,7.47
7,COc1ccccc1-c1nn2c(-c3ccco3)nnc2s1,-9.47
8,COc1ccc(CCNc2nc(-c3cccnc3)cs2)cc1OC,23.6
9,CCN1CCN(C(=S)c2ccc(SC)cc2)CC1,-18
10,CC12CCC(=O)N1c1c(sc3nc(N4CCOCC4)c4c(c13)CCCC4)C(=O)N2 (stereo not drawn),-11
11,CN(C)CCCNC(=O)c1cc2c3ccccc3n(C)c2s1,-16
12,O=C(Nc1cc(S(=O)(=O)N2CCCCCC2)ccc1OCC(F)(F)F)c1ccc(=O)[nH]c1,3.09
13,COC(=O)[C@H](C)NC(=O)COc1ccccc1,-0.549
14,Cc1cc(NC(=O)c2cc3n(n2)C(C(F)(F)F)CC(c2ccco2)N3)no1 (stereo not drawn),9.78
15,COC(=O)c1c(NC(=O)CN2C(=O)NC3(CCCCC3C)C2=O)sc2c1CCC2 (stereo not drawn),-1.42
16,Cc1cnc(C(=O)OCC(=O)Nc2ccc(Cl)cc2Cl)cn1,-3.28
17,CCC(C)c1ccc(OCC(=O)Nc2ccc(Cl)cn2)cc1 (stereo not drawn),-0.712
18,COc1ccc(S(=O)(=O)N(CC(=O)NC2CCCCC2)c2ccc(F)cc2)cc1,14.6
19,CC1CCN(C(=O)C2CCCCN2S(=O)(=O)c2cccc([N+](=O)[O-])c2)CC1 (stereo not drawn),9.93
20,CCCc1cc2c(cc1NC(=O)c1ccccc1F)OCO2,3.76
21,Cc1ccccc1NCc1ccc(O)c2ncccc12,8.46
